PubChem BioAssay AID686978 (National Center for Advancing Translational Sciences (NCATS), 2013)
The whole screen tested about 420,000 compounds, of which about 64,000 (15%) were called active. Inconclusive results, whose numbers are uncertain, are shown with a selection of clear calls. Calls come from the whole dose curve; as a rule, active = well fitted inhibition curve with a large enough effect; inconclusive = small, poorly fitted or top-dose-only effect; inactive = flat fitted curve, though single readings scatter. No potency is given beside an inconclusive call; the fits are too rough.

Test: qHTS for Inhibitors of human tyrosyl-DNA phosphodiesterase 1 (TDP1): qHTS in cells in absence of CPT; note: nearly all actives have a fitted effect of over 55% in size
Details: DT40 Tdp1-/- hTDP1 cells, no CPT, ATP luminescence, 48 h; activity change, negative = growth inhibition: at 46.2 µM (top of the series)
Method in brief: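 Readout: luminescence from CellTiter-Glo after 30 min in the dark at RT. Cells: DT40 Tdp1-/- with stable hTDP1, 400/well. Exposure: compounds alone, ≥48 hr, 37 °C.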
% is set by controls: 0 for no effect and ±100 for the full control effect; potency is the fitted concentration of half-maximal effect; tags give direction and shape of the fitted curve.

**Q.** With `COc1cc(OC)cc(C(=O)Nc2ccccc2N2CCOCC2)c1` as the compound, how does the Potency read?
**A.** inconclusive [inhibitor, single point]

**Q.** Which Potency does the source give for `CC(C)C(N)c1csc(Nc2cc(Oc3ccccc3)ncn2)n1` (configuration not stated) here?
**A.** inconclusive [inhibitor, single point]

**Q.** With `Cc1ccc2nc(COc3ccccc3NC(=O)c3ccccc3C)cc(=O)n2c1` as the compound, how does the Potency read?
**A.** inconclusive [inhibitor, full curve]

**Q.** Which Potency does the source give for `Cc1cccc(CCNC(=O)c2ccc3c(c2)nc2n3CCC(C)C2)c1` (configuration not stated) here?
**A.** active: 18.4 µM

**Q.** For `Cc1ccc(C)c(CN2CCC(CNC(=O)Nc3ccc(C)c(C)c3)CC2)c1`, which Potency is on record?
**A.** active: 14.6 µM

**Q.** With `CCOC(=O)c1c(NC(=O)/C=C/C(=O)O)sc(C)c1-c1ccc(C(C)(C)C)cc1` as the compound, how does the Potency read?
**A.** active: 20.6 µM

**Q.** For `COc1ccc(CCNc2ncccc2C#N)cc1OC`, which Potency is on record?
**A.** inconclusive [inhibitor, single point]

**Q.** With `Cc1c(Cl)cccc1NC(=S)N1CCCCCC1` as the compound, how does the Potency read?
**A.** active: 18.4 µM

**Q.** Which Potency does the source give for `CCCCC[C@H](C)N1C[C@H](COCc2ccccc2)Oc2cc(N3CCC[C@H]3COC)ccc2S1(=O)=O` here?
**A.** active: 18.4 µM

**Q.** Which Potency does the source give for `COc1ccc(OC)c(NC(=O)c2ccc3c(SCC(=O)O)c4c(nc3c2)CCCC4)c1` here?
**A.** inconclusive [inhibitor, partial curve]

**Q.** For `Cc1cccc(-n2c(O)c(C=NC3CCS(=O)(=O)C3)c3ccccc3c2=O)c1` (configuration not stated), which Potency is on record?
**A.** inconclusive [inhibitor, single point]

**Q.** Which Potency does the source give for `COc1ccc(NC(=O)c2ccc(NC(=O)c3ccncc3)cc2)cc1` here?
**A.** inconclusive [inhibitor, single point]

**Q.** Which Potency does the source give for `O=C(CC(Cc1ccccc1)C(=O)O)Nc1ccccc1` (configuration not stated) here?
**A.** inconclusive [inhibitor, single point]

**Q.** With `COc1ccc(C(CC(=O)N2CCN(c3ccccc3)CC2)c2c(OC)cc(OC)c3ccc(=O)oc23)cc1` (configuration not stated) as the compound, how does the Potency read?
**A.** inconclusive [inhibitor, single point]

**Q.** For `Oc1ccc(NCc2cccc(OCc3ccc(F)cc3)c2)cc1`, which Potency is on record?
**A.** active: 18.4 µM

**Q.** With `Cc1sc(NC(=O)C2CCCCC2C(=O)O)c(C(N)=O)c1-c1ccccc1` (configuration not stated) as the compound, how does the “activity change, negative = growth inhibition” value read?
**A.** inactive: -22.2%

**Q.** Which “activity change, negative = growth inhibition” value does the source give for `Cc1ccc(CN2CCN(C(=O)CC(C)C)CC2)cc1` here?
**A.** inactive: -4.54%

**Q.** With `CCOC(=O)CN1C2=NCCN2c2ccccc21` as the compound, how does the “activity change, negative = growth inhibition” value read?
**A.** inactive: -7.04%

**Q.** For `O=S(=O)(c1ccc(Cl)cc1)c1nc(-c2cccc(Br)c2)oc1NCc1ccccc1`, which Potency is on record?
**A.** inconclusive [inhibitor, partial curve]

**Q.** With `COc1cc2c(cc1OC)C(=Cc1ccc(N(C)C)cc1)C=C2` as the compound, how does the Potency read?
**A.** inconclusive [inhibitor, partial curve]

**Q.** With `COc1ccc(CCn2c(=O)c3cccnc3n(CC(=O)Nc3c(C)cccc3C)c2=O)cc1OC` as the compound, how does the “activity change, negative = growth inhibition” value read?
**A.** inactive: -23.8%

**Q.** With `CCc1cccc(C)c1NC(=O)Cn1c(=O)n(-c2ccc(C)cc2)c(=O)c2c1cnn2C` as the compound, how does the “activity change, negative = growth inhibition” value read?
**A.** inactive: -1.49%

**Q.** With `COc1ccccc1NC(=O)Nc1ccccc1C(=O)NCCCN1CCOCC1` as the compound, how does the Potency read?
**A.** inconclusive [inhibitor, single point]

**Q.** With `CC1(C)CCCN(C(=O)c2ccc3c(c2NCCO)C(=O)c2ccccc2C3=O)C1` as the compound, how does the Potency read?
**A.** inconclusive [inhibitor, single point]

**Q.** For `COc1cc(SC)ccc1C(=O)Nc1ccc2c(c1)OCCO2`, which Potency is on record?
**A.** inconclusive [inhibitor, partial curve]

**Q.** For `N#C/C(C(=O)N1CCOCC1)=C1/SC(Cc2ccc(F)cc2)C(=O)N1c1ccccc1` (configuration not stated), which “activity change, negative = growth inhibition” value is on record?
**A.** inactive: 5.03%

**Q.** Which Potency does the source give for `O=C(c1ccco1)N1CCN(c2nc3c(F)cc(F)cc3s2)CC1` here?
**A.** inconclusive [inhibitor, single point]

**Q.** With `O=C1c2cccc3c(N4CCOCC4)c([N+](=O)[O-])cc(c23)C(=O)N1c1cccc2ccccc12` as the compound, how does the Potency read?
**A.** active: 18.4 µM

**Q.** With `c1ccc(-n2ncc3c(NCc4ccccn4)ncnc32)cc1` as the compound, how does the “activity change, negative = growth inhibition” value read?
**A.** inactive: -13.3%

**Q.** Which “activity change, negative = growth inhibition” value does the source give for `COc1cccc(-n2nnnc2SCC(=O)Nc2cccc(NC(C)=O)c2)c1` here?
**A.** inactive: -19.1%

**Q.** With `O=C(Nc1ccc(Oc2ccccc2)cc1)c1csc(COCCO)n1` as the compound, how does the Potency read?
**A.** inconclusive [inhibitor, single point]

**Q.** With `Cc1cccc(-c2noc(-c3ccc(NCc4ccco4)c([N+](=O)[O-])c3)n2)c1` as the compound, how does the Potency read?
**A.** inconclusive [inhibitor, partial curve, poor fit]

**Q.** For `COC(=O)c1cn(NC(=O)c2cc(OC)c(OC)c(OC)c2)c(=O)c2ccccc12`, which Potency is on record?
**A.** inconclusive [inhibitor, single point]

**Q.** With `Cc1nn(-c2ccccc2)c2nc(=O)n(-c3ccccc3)cc12` as the compound, how does the Potency read?
**A.** active: 7.31 µM

**Q.** For `O=c1c2ccccc2nc(N2CCN(c3ccccc3)CC2)n1Cc1ccccc1`, which Potency is on record?
**A.** inconclusive [inhibitor, single point]

**Q.** For `Clc1ccc(-c2cc(CN3CCCCC3)no2)cc1Cl`, which Potency is on record?
**A.** inconclusive [inhibitor, single point]

**Q.** Which Potency does the source give for `CCCC[C@@]1(C2CCCC2)Cc2cc(OCC(=O)O)c(Cl)c(Cl)c2C1=O` here?
**A.** inconclusive [inhibitor, partial curve]

**Q.** For `COc1cccc(-c2ccc(-c3noc(-c4ccccc4Br)n3)c(OC)n2)c1`, which “activity change, negative = growth inhibition” value is on record?
**A.** inactive: -24.3%

**Q.** For `CCOc1ccc(NC(=S)N2CCC(C(O)(c3ccccc3)c3ccccc3)CC2)cc1`, which Potency is on record?
**A.** inconclusive [inhibitor, partial curve, poor fit]

**Q.** For `CC(C)(CNC(=O)/C=C/c1ccc(F)cc1)CNC(=O)/C=C/c1ccc(F)cc1`, which Potency is on record?
**A.** inconclusive [inhibitor, single point]

**Q.** With `O=C(CSc1nnc(-c2ccc(Cl)cc2)o1)N1CCOCC1` as the compound, how does the Potency read?
**A.** inconclusive [inhibitor, partial curve]

**Q.** With `COc1ccc(OC)c2sc(N(CCCN(C)C)C(=O)CCS(=O)(=O)c3ccccc3)nc12` as the compound, how does the Potency read?
**A.** active: 0.651 µM

**Q.** Which “activity change, negative = growth inhibition” value does the source give for `O=C(O)c1ccc(NS(=O)(=O)Cc2ccc(Cl)c(Cl)c2)cc1` here?
**A.** inactive: 6.94%

**Q.** For `O=C(O)/C=C/C(=O)Nc1cccc2c1-c1ccccc1C2=O`, which Potency is on record?
**A.** inconclusive [inhibitor, single point]

**Q.** For `CC(C)CC1=NN(C(=O)c2cccnc2)C(O)(C(F)(F)F)C1` (configuration not stated), which Potency is on record?
**A.** active: 2.91 µM

**Q.** With `CCOc1ccc(C(=O)Nc2ccc(N3CCN(C(=O)c4ccco4)CC3)cc2)cc1Br` as the compound, how does the Potency read?
**A.** inconclusive [inhibitor, partial curve]

**Q.** For `CC1=CC2=NC(=O)/C(=C\c3ccc(OC(=O)c4ccco4)cc3)C(=N)N2O1`, which “activity change, negative = growth inhibition” value is on record?
**A.** inactive: -2.12%

**Q.** Which Potency does the source give for `CCCCNS(=O)(=O)c1ccc2nc(SCC(=O)c3ccccc3OC)[nH]c2c1` here?
**A.** inconclusive [inhibitor, single point]

**Q.** For `Cc1noc(C)c1COc1ccccc1C(=O)N1CCN(S(=O)(=O)c2ccccc2C(F)(F)F)CC1`, which Potency is on record?
**A.** inconclusive [inhibitor, single point]

**Q.** Which Potency does the source give for `CCC(C)NCCOc1ccc(C(C)(C)c2ccccc2)cc1` (configuration not stated) here?
**A.** active: 16.4 µM

**Q.** Which “activity change, negative = growth inhibition” value does the source give for `COC(=O)c1cn(Cc2ccccc2C)nn1` here?
**A.** inactive: -13.3%

**Q.** With `COc1ccccc1C1NC(c2ccc3c(c2)OCO3)=CC(c2ccccc2O)N1` (configuration not stated) as the compound, how does the Potency read?
**A.** active: 10 µM

**Q.** Which Potency does the source give for `COc1ccc2ccn(S(=O)(=O)c3ccccc3)c2c1` here?
**A.** inconclusive [inhibitor, full curve, poor fit]

**Q.** With `CCC(=O)N/C(N)=N/c1nc(C)c2cc(C)c(C)cc2n1` as the compound, how does the Potency read?
**A.** inconclusive [inhibitor, partial curve, poor fit]

**Q.** With `Cc1onc(C(=O)NCCc2ccccc2)c1[N+](=O)[O-]` as the compound, how does the Potency read?
**A.** inconclusive [inhibitor, single point]

**Q.** For `O=C1/C(=C/c2ccccn2)SC(=S)N1c1cccc(O)c1`, which Potency is on record?
**A.** inconclusive [inhibitor, single point]

**Q.** For `Cc1ccccc1C(=O)NC1CCCN(Cc2ccccc2F)C1` (configuration not stated), which Potency is on record?
**A.** inconclusive [inhibitor, single point]

**Q.** For `CCOC(=O)C1CCCN(c2nc3c(S(=O)(=O)c4ccc(Br)cc4)nnn3c3ccsc23)C1` (configuration not stated), which Potency is on record?
**A.** inconclusive [inhibitor, single point]

**Q.** Which “activity change, negative = growth inhibition” value does the source give for `Cc1ccc(NC(=O)CCn2nc(C)cc2C)cc1` here?
**A.** inactive: -4.16%

**Q.** Which “activity change, negative = growth inhibition” value does the source give for `CCc1cc(=O)oc2cc(C)cc(OCC(=O)N3CCC[C@@H]3C(=O)O)c12` here?
**A.** inactive: -3.49%

**Q.** Which “activity change, negative = growth inhibition” value does the source give for `CCc1cc(-c2n[nH]c(C)c2-c2nc(C)cs2)c(O)cc1OC` here?
**A.** inactive: -27.5%

**Q.** For `Cc1cc2nc(-c3ccccc3O)[nH]c2cc1C`, which activity change, negative = growth inhibition is on record?
**A.** inconclusive: -24.7% [inhibitor]

**Q.** For `O=C(CSc1nc2ccccc2c(=O)n1-c1ccccc1)c1cccc([N+](=O)[O-])c1`, which Potency is on record?
**A.** inconclusive [inhibitor, partial curve]

**Q.** With `CCCCCCOC(=O)C1(O)CC2OC1(C)n1c3ccccc3c3c4c(c5c6ccccc6n2c5c31)C(=O)NC4` (configuration not stated) as the compound, how does the Potency read?
**A.** inconclusive [inhibitor, partial curve, poor fit]

**Q.** Which “activity change, negative = growth inhibition” value does the source give for `NC(CCC(=O)NC(CS)C(=O)NCC(=O)O)C(=O)O` (configuration not stated) here?
**A.** inactive: 1.79%

**Q.** Which “activity change, negative = growth inhibition” value does the source give for `O=S(=O)(NC1CCCCC1)c1cccc2nsnc12` here?
**A.** inactive: -11.2%

**Q.** Which Potency does the source give for `COc1cccc(Cn2c(N)c(C#N)c3nc4ccccc4nc32)c1OC` here?
**A.** inconclusive [inhibitor, single point]

**Q.** With `Cc1cccc(C(=O)NC2CC3CCCC(C2)N3C(=O)Nc2ccccc2)c1` (configuration not stated) as the compound, how does the Potency read?
**A.** inconclusive [inhibitor, single point]

**Q.** Which Potency does the source give for `CCCOc1ccccc1NC(=O)c1c(-c2ccccc2)noc1C` here?
**A.** active: 8.2 µM

**Q.** Which Potency does the source give for `OC[C@H]1O[C@@H](O[C@@H]2[C@@H](CO)O[C@](O)(CO)[C@H]2O)[C@H](O)[C@@H](O)[C@H]1O` here?
**A.** inactive

**Q.** With `O=C(COC(=O)c1ccc[nH]c1=O)Nc1ccc(N2CCCCC2)cc1` as the compound, how does the “activity change, negative = growth inhibition” value read?
**A.** inactive: -15%

**Q.** With `NC(=O)[C@@H]1CC2(CC(c3cccc(NC(=O)CC(c4ccccc4)c4ccccc4)c3)=NO2)CN1C(=O)c1ccc(Cl)cc1` (some centres not stated) as the compound, how does the Potency read?
**A.** inconclusive [inhibitor, single point]
